Among the data in article PMC9911399, “Two distinct binding modes provide the RNA-binding protein RbFox with extraordinary sequence specificity” are binding signal values, retold here.

T1: RBFOX1 RRM (Homo sapiens, UniProt Q9NWB1 109-208)
T1 sequence: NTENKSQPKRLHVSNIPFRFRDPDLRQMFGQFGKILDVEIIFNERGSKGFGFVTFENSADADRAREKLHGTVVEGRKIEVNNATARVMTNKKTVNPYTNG

B1: GCAUGUC (DNA:RNA)
RNA: GGGAGACCGGAAUUCAGAUUGUCCGCAUGUCUUAAAUCCCGUCGUAGCCACCA
DNA 1: CAATCTGAATTCCGGTCTCCC
DNA 2: TGGTGGCTACGACGGGATT
B2: UUCAUUA (DNA:RNA)
RNA: B1 RNA with G25U, C26U, A27C, U28A, G29U, C31A
DNA 1: CAATCTGAATTCCGGTCTCCC
DNA 2: TGGTGGCTACGACGGGATT
B3: UUCCUUG (DNA:RNA)
RNA: B1 RNA with G25U, C26U, A27C, U28C, G29U, C31G
DNA 1: CAATCTGAATTCCGGTCTCCC
DNA 2: TGGTGGCTACGACGGGATT
B4: UAACCGU (DNA:RNA)
RNA: B1 RNA with G25U, C26A, U28C, G29C, U30G, C31U
DNA 1: CAATCTGAATTCCGGTCTCCC
DNA 2: TGGTGGCTACGACGGGATT
B5: CGGACGC (DNA:RNA)
RNA: B1 RNA with G25C, C26G, A27G, U28A, G29C, U30G
DNA 1: CAATCTGAATTCCGGTCTCCC
DNA 2: TGGTGGCTACGACGGGATT
B6: AUCGCCG (DNA:RNA)
RNA: GGGAGACCGGAAUUCAGAUUGUCCAUCGCCGUUAAAUCCCGUCGUAGCCACCA
DNA 1: CAATCTGAATTCCGGTCTCCC
DNA 2: TGGTGGCTACGACGGGATT
B7: UCGGCAU (DNA:RNA)
RNA: B6 RNA with A25U, U26C, C27G, C30A, G31U
DNA 1: CAATCTGAATTCCGGTCTCCC
DNA 2: TGGTGGCTACGACGGGATT
B8: ACUUUGC (DNA:RNA)
RNA: B1 RNA with G25A, A27U, G29U, U30G
DNA 1: CAATCTGAATTCCGGTCTCCC
DNA 2: TGGTGGCTACGACGGGATT
B9: UUAGCAC (DNA:RNA)
RNA: B6 RNA with A25U, C27A, C30A, G31C
DNA 1: CAATCTGAATTCCGGTCTCCC
DNA 2: TGGTGGCTACGACGGGATT
B10: CUUAUAG (DNA:RNA)
RNA: B6 RNA with A25C, C27U, G28A, C29U, C30A
DNA 1: CAATCTGAATTCCGGTCTCCC
DNA 2: TGGTGGCTACGACGGGATT
B11: GCCGUCC (DNA:RNA)
RNA: B6 RNA with A25G, U26C, C29U, G31C
DNA 1: CAATCTGAATTCCGGTCTCCC
DNA 2: TGGTGGCTACGACGGGATT
B12: CGGCCAU (DNA:RNA)
RNA: B6 RNA with A25C, U26G, C27G, G28C, C30A, G31U
DNA 1: CAATCTGAATTCCGGTCTCCC
DNA 2: TGGTGGCTACGACGGGATT
B13: UAACGCU (DNA:RNA)
RNA: B1 RNA with G25U, C26A, U28C, U30C, C31U
DNA 1: CAATCTGAATTCCGGTCTCCC
DNA 2: TGGTGGCTACGACGGGATT
B14: AGGUUCA (DNA:RNA)
RNA: B6 RNA with U26G, C27G, G28U, C29U, G31A
DNA 1: CAATCTGAATTCCGGTCTCCC
DNA 2: TGGTGGCTACGACGGGATT
B15: UUUAGCU (DNA:RNA)
RNA: B6 RNA with A25U, C27U, G28A, C29G, G31U
DNA 1: CAATCTGAATTCCGGTCTCCC
DNA 2: TGGTGGCTACGACGGGATT
B16: UAGUAAU (DNA:RNA)
RNA: B1 RNA with G25U, C26A, A27G, G29A, U30A, C31U
DNA 1: CAATCTGAATTCCGGTCTCCC
DNA 2: TGGTGGCTACGACGGGATT
B17: GCCGCUA (DNA:RNA)
RNA: B6 RNA with A25G, U26C, C30U, G31A
DNA 1: CAATCTGAATTCCGGTCTCCC
DNA 2: TGGTGGCTACGACGGGATT
B18: UCCUUCG (DNA:RNA)
RNA: B6 RNA with A25U, U26C, G28U, C29U
DNA 1: CAATCTGAATTCCGGTCTCCC
DNA 2: TGGTGGCTACGACGGGATT
B19: CCGGCCC (DNA:RNA)
RNA: B6 RNA with A25C, U26C, C27G, G31C
DNA 1: CAATCTGAATTCCGGTCTCCC
DNA 2: TGGTGGCTACGACGGGATT
B20: GUAAAUA (DNA:RNA)
RNA: B1 RNA with C26U, U28A, G29A, C31A
DNA 1: CAATCTGAATTCCGGTCTCCC
DNA 2: TGGTGGCTACGACGGGATT

Positions count from the first letter of the chain named. Some of the results follow.

The target of this assay is T1, RBFOX1 RRM. Kind of assay: EMSA; HiTS-Eq, 1 nM pool, 10 min; buffer printed only for the single-RNA assays: 10 mM Tris pH 7.5, 150 mM NaCl, 3.4 mM EDTA, 0.001% NP-40, 30 C. To be noted: tags: His6 N-terminal (pET28a); label: 5' 32P. In short, it runs like this:
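Purified RbFox RRM (wild type or mutant) was equilibrated for 10 min in 50 µL with 1 nM of a 5′-radiolabelled pool of RNA with 7 randomized nucleotides, its flanks annealed to DNA oligonucleotides, across increasing protein concentrations. Free RNA was separated by 8% native PAGE, excised, reverse-transcribed, PCR-barcoded and sequenced on an Illumina HiSeq 2500. Relative association constants came from read-count changes of each variant against the control reaction, normalised to the cognate motif.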
(In EMSA bound probe runs differently from free probe, usually more slowly.)
Consider B1, for which the binding signal was 0.689 KA relative to UGCAUGU. In the case of B2, the binding signal was 0.000726 KA relative to UGCAUGU.

Regarding B3, the binding signal is 0.00951 KA relative to UGCAUGU.

Regarding B4, the binding signal is 0.00391 KA relative to UGCAUGU. For the molecule B5, the binding signal was 0.0184 KA relative to UGCAUGU.

For the molecule B6, the binding signal was 0.00734 KA relative to UGCAUGU.

As for B7, the binding signal is 0.0191 KA relative to UGCAUGU.

For B8, the binding signal was 0.0114 KA relative to UGCAUGU. Regarding B9, the binding signal is 0.011 KA relative to UGCAUGU. As for B10, the binding signal is 0.00503 KA relative to UGCAUGU. Regarding B11, the binding signal is 0.0117 KA relative to UGCAUGU.

As to B12, the binding signal was 0.00516 KA relative to UGCAUGU.

Turning to B13, the binding signal was 0.00788 KA relative to UGCAUGU.

B14: the binding signal was 0.00904 KA relative to UGCAUGU. As for B15, the binding signal is 0.0121 KA relative to UGCAUGU. For B16, the binding signal was 0.00829 KA relative to UGCAUGU.

Turning to B17, the binding signal was 0.0149 KA relative to UGCAUGU. In the case of B18, the binding signal was 0.0178 KA relative to UGCAUGU. As for B19, the binding signal is 0.0179 KA relative to UGCAUGU. As to B20, the binding signal was 0.000978 KA relative to UGCAUGU.
